Some of the results follow. At the low end of the ranking the order means little.

In this assay the target is T1, GST-Rok-C97-191 (UniProt O34857).
T1 sequence: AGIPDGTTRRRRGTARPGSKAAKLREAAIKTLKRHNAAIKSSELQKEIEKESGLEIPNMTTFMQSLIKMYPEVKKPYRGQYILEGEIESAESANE
The assay is described as follows: protein binding microarray.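 Also: rank score from −0.5 (least bound) to 0.5 (best bound).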 As to conditions: Rok is a gene silencer of Bacillus subtilis; high values mean tight binding; most listed sequences are background and not binding sites; double strand, one strand shown.
In turn, ACCTACTA showed a binding signal of 0.343 E-score.
Then AGCACGCG, with 0.00152 E-score; and ACTACCAG, with 0.213 E-score; and CATCGAAA, with 0.033 E-score.
Then CAGACCAC, with -0.188 E-score; and ATCATTAG, with 0.103 E-score; and CCCGCCTC, with -0.335 E-score.
On to CAGCTTTC, for which the binding signal amounted to 0.0558 E-score.
As to CCATTTTC, the binding signal is -0.132 E-score.
The sequence CCCAAAAA registered a binding signal of 0.161 E-score.
Then AAGTGTGG, with -0.0423 E-score.
Then CCGGCGCA, with -0.273 E-score; and ATAGCCAA, with 0.0621 E-score; and AAAGGGCA, with 0.0346 E-score.
Then AGTGCTCC, with -0.221 E-score; and CCTCCGTC, with -0.355 E-score.
In turn, GCTGTTCC displayed a binding signal of -0.12 E-score.
Then AACTCACA, with 0.0954 E-score; and CAAAGTTA, with 0.0336 E-score.
Then CTCCGTAA, with -0.153 E-score; and CCCCGCTA, with -0.195 E-score.
For the sequence CTACGAAC, the binding signal worked out at 0.149 E-score.
Then CTTCATTA, with 0.0438 E-score; and CACCTCAA, with 0.0883 E-score; and CGACTTCA, with -0.109 E-score.
On to GCACAAGC, for which the binding signal is -0.233 E-score.
Regarding GGACACAC, the binding signal was -0.142 E-score.
GCCTCATA: the binding signal is -0.156 E-score.
In turn, ATCATTTG came in with a binding signal of 0.138 E-score.
Then TAATTGAA, with 0.0505 E-score; and AATGTAAC, with 0.166 E-score; and GTAGAGAA, with 0.135 E-score.
Turning to TATATCGA, the binding signal came to 0.314 E-score.
For the sequence ACACTCAT, the binding signal is -0.168 E-score.
Then GAATTACC, with 0.18 E-score.
For GAAAGATA, the binding signal is 0.329 E-score.
Then AGATTTAC, with 0.205 E-score; and CGGCGCGC, with -0.31 E-score.
Then AGATGCAA, with -0.0738 E-score; and TCCATTCA, with -0.131 E-score.
Turning to GCTTACGA, the binding signal was 0.0382 E-score.
Then AATCAGGG, with -0.138 E-score.
Regarding GCTGGGGA, the binding signal was -0.22 E-score.
Then AAGGCATG, with 0.00172 E-score; and TGCTGAAA, with -0.0784 E-score.
Then CTAGAGCC, with -0.0458 E-score.
Then TCACTGCA, with -0.0738 E-score; and CGGCGAGA, with -0.0401 E-score; and CGTTGATA, with 0.181 E-score.
For the sequence AGTTATCC, the binding signal is 0.14 E-score.
In turn, GCGTTTAA gave a binding signal of -0.000341 E-score.
Then CAAGGTGG, with -0.183 E-score.
AAGCAGGA: the binding signal is -0.162 E-score.
The sequence ATCTTGGG yielded a binding signal of -0.154 E-score.
The sequence ACCATTAG gave a binding signal of 0.127 E-score.
Turning to CTTAATAC, the binding signal was 0.0879 E-score.
Then AATAGCTA, with 0.329 E-score; and AAGGGTCT, with -0.165 E-score.
Take GGGGGCGA: the binding signal is -0.305 E-score.
Then CGTAAACC, with 0.099 E-score; and AAGACCAT, with 0.0367 E-score.
Then ACTGCACA, with 0.168 E-score; and ACAGACTA, with 0.0827 E-score; and CCGACGCG, with -0.18 E-score.
Then CAGCCGTA, with -0.0607 E-score; and GGATGGGA, with -0.147 E-score.
Sequence ACCCGATC registered a binding signal of -0.151 E-score.
Take GGCGAACA: the binding signal is -0.32 E-score.
ACATCACT came in with a binding signal of -0.015 E-score.
In turn, CTGTTGTC came in with a binding signal of -0.128 E-score.
Then ACCCGCTC, with -0.169 E-score; and CTTGGTCC, with -0.254 E-score.
Turning to ACAGAGAA, the binding signal was -0.107 E-score.
In the case of CTTTGCAC, the binding signal amounted to 0.147 E-score.
Then CTGTGTCC, with -0.0743 E-score; and ACATACGA, with 0.0378 E-score; and TAATCGCA, with 0.012 E-score.
With ATTTAGGG, the binding signal is -0.024 E-score.
Then CAAGCATC, with -0.111 E-score; and CTCAATCC, with -0.024 E-score.
The sequence GAGGGTGC had a binding signal of -0.117 E-score.
ATGTAACA displayed a binding signal of 0.22 E-score.
TCCCTCGA: the binding signal is -0.0813 E-score.
Then AGGCATAT, with -0.0106 E-score; and AGGGTCTC, with -0.305 E-score.
Then CGAGGTTA, with 0.1 E-score; and ATGTCCCG, with -0.143 E-score; and AGAGCCAC, with -0.242 E-score.
On to AAAGGGCT, for which the binding signal was -0.271 E-score.
ATGTATTC yielded a binding signal of 0.23 E-score.
AAGGACCC had a binding signal of -0.274 E-score.
The sequence GTATTGTA gave a binding signal of 0.212 E-score.
Then ATGATTTA, with 0.0677 E-score; and ACCGAAAA, with 0.254 E-score.
Then AGCTACCT, with 0.209 E-score.
As to AAATTATC, the binding signal turned out to be 0.364 E-score.
Then CTACGAAG, with 0.139 E-score; and ACCCCTCT, with -0.234 E-score.
Then CACGCATC, with 0.0237 E-score; and CGATGGAA, with 0.00647 E-score.
For TCCGGGCA, the binding signal is -0.169 E-score.
Then CATCGCCG, with -0.178 E-score; and AACTAATA, with 0.288 E-score.
Then CCTGCAAC, with -0.103 E-score; and ATAGAGTG, with 0.0207 E-score; and ATTATCGG, with 0.177 E-score.
Then ACAGACGA, with 0.165 E-score.
For the sequence GATATGCC, the binding signal is 0.0339 E-score.
As to AGAAATTC, the binding signal is 0.184 E-score.
ATAGACAA displayed a binding signal of 0.0932 E-score.
Then AATGTGGA, with 0.0237 E-score.
For ACTTAGAG, the binding signal is 0.0787 E-score.
As for AAACCACA, the binding signal stood at 0.135 E-score.
Then ATAATCGA, with 0.22 E-score; and CTACATAG, with 0.152 E-score.
TGATGCAA returned a binding signal of 0.0017 E-score.
Then ACATTAAG, with 0.0456 E-score.
Consider AACTGAAG, for which the binding signal is -0.0934 E-score.
Then GGCCCACC, with -0.342 E-score; and ACCTTGAG, with -0.0415 E-score.
Then AGGGTTGC, with -0.217 E-score; and AACGACTC, with -0.177 E-score; and CCGGGCTC, with -0.311 E-score.
Then CTTCTCCA, with -0.00958 E-score.
CGGATTCC: the binding signal is -0.161 E-score.
Then GACGAACC, with -0.197 E-score; and GCCCCGGC, with -0.231 E-score; and AAGTCTAT, with -0.116 E-score.
Then ATGTAATG, with 0.162 E-score; and GATAACCC, with -0.0417 E-score.
Then GTATGGCA, with 0.044 E-score.
Regarding GACTTTGC, the binding signal is -0.0626 E-score.
The sequence AGACACAT registered a binding signal of -0.0118 E-score.
Then GACCGGTA, with 0.258 E-score; and ACCGTCGG, with -0.166 E-score; and AGGTTGGA, with -0.242 E-score.
Then CCCAGAGC, with -0.301 E-score.
Take CCATGCCG: the binding signal is -0.0764 E-score.
Then GACACATA, with 0.0778 E-score; and CTGCACAG, with -0.0791 E-score.
Then AAGCGGTG, with -0.104 E-score.
Then AATTAGTC, with 0.261 E-score.
With ATCCTAAT, the binding signal was determined as 0.217 E-score.
Then TCAACGGA, with -0.0515 E-score; and AGACAGTA, with 0.0933 E-score.
On to TCGATCAA, for which the binding signal turned out to be 0.27 E-score.
As to CTGACCTC, the binding signal was -0.23 E-score.
Then CAACTTAA, with -0.013 E-score.
CTCTTCGA yielded a binding signal of -0.0372 E-score.
Then AGGTAGGA, with 0.0283 E-score; and ATGTTACA, with 0.194 E-score.
Then ATAGGATC, with 0.199 E-score.
Then AGCGTCAC, with -0.0853 E-score; and GCCCATAC, with -0.145 E-score.
The sequence GAACGACC registered a binding signal of -0.143 E-score.
In turn, CCCCTGCG came in with a binding signal of -0.193 E-score.
Then AGAACTAG, with 0.291 E-score; and CCCCACTC, with -0.284 E-score; and CGATCTTC, with 0.106 E-score.
Then GCAACACA, with -0.099 E-score; and CTCTGGCC, with -0.137 E-score.
Then GACTGATA, with 0.171 E-score; and TCGCGAAA, with 0.15 E-score.
GGACCATA: the binding signal was 0.00746 E-score.
Consider AGCACCCA, for which the binding signal was -0.195 E-score.
Then AGCGCGCG, with 0.0641 E-score; and AGGCTATG, with -0.178 E-score; and ATAGGCAC, with 0.0794 E-score.
Turning to AAATACTG, the binding signal turned out to be 0.283 E-score.
As to ACGAAACT, the binding signal stood at 0.31 E-score.
Consider CTCTGTTC, for which the binding signal was -0.0377 E-score.
Then GGCGCTAA, with -0.0606 E-score.

Source of the values: article PMC6212790.
